PubChem BioAssay AID1963576 (National Center for Advancing Translational Sciences (NCATS), 2024)
In all, about 46,000 compounds went through this assay and about 60 (0.1%) were called active. Inconclusive results (about 3%) are left out. The call rests on the fitted dose curve; in most records, active means well fitted inhibition curve with a large enough effect; inconclusive means small, poorly fitted or top-dose-only effect; inactive means no such curve, though single readings can be large or run the other way. The list shows a part of the results.

assay: Primary qHTS assay for Inhibitors of ovarian cancer metastasis using an organotypic tumor microenvironment (TME) model.; further: nearly all actives have a fitted effect of over 65% in size;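 on activity change, negative = inhibition: plate controls were DMSO wells for no effect and tomatine positive control wells for full effect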; settings: SKOV3ip1-GFP adhesion/invasion on 3D omental model, fluorescence; series mostly up to 45.8 µM; activity change, negative = inhibition: at the top concentration
In short: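 qHTS, 4-pt dose (0.36-46 umol/L); SKOV3ip1-GFP, 1,200 cells/well, no FBS; primary omental fibroblast/mesothelial co-culture 48 h pre-grown; 2 h RT + 16 h 37 C; PBS wash, 4% PFA; GFP count 488/509 nm.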

Activity change, negative = inhibition, inactive:
CCOc1ccc(CNC(=O)CC(C)n2nc(C)cc2C)cc1OC (stereo unspecified) 2.91%
CC1=C(C(=O)Nc2ccc(C)cc2C)C(c2ccc(C(=O)O)cc2)n2nc(SCc3ccccc3)nc2N1 (stereo unspecified) 6.71%
CCn1c(-c2nonc2N)nc2cnc(Oc3cccc(NC(=O)c4ccc(OCCN5CCOCC5)cc4)c3)cc21 13.8%
Cn1c(SCC(=O)N2CCCc3ccccc32)ncc(C(=O)Nc2ccccc2)c1=O -2.96%
CCc1nn2c(=O)cc(COC(=O)c3ccc(NC(=O)COc4ccc(C)cc4)cc3)nc2s1 -1.77%
COc1ccc(OC)c(CNC(=O)c2cnc3c(C)cccn3c2=O)c1 8.4%
CCc1cccc(NC(=O)Cn2c(=O)n(-c3cccc(Cl)c3)c(=O)c3c2c2cc(C)ccc2n3C)c1 2.51%
Cc1ccc2[nH]c(=O)c(CN(C(=O)c3cccc(Cl)c3)C(C)(C)C)cc2c1 -13.4%
Cc1ccccc1C(=O)Nc1cccc(C(=O)OCc2cc(=O)n3ccsc3n2)c1 20.7%
CCOC(=O)C(C)Sc1nc(-c2ccccc2Cl)cc(-c2ccccc2)c1C#N (stereo unspecified) 9.4%
Cc1cc(C)cc(NC(=O)CSc2nc(=O)n(Cc3ccccn3)c3c2CCC3)c1 -6.16%
Cc1ccc(C(=O)COC(=O)C(Cc2c[nH]c3ccccc23)NC(=O)c2ccc(C(C)(C)C)cc2)cc1 (stereo unspecified) 0.394%
Cc1cccc(C)c1OCc1cc(=O)n2c3c(sc2n1)CCCC3 -4.92%
CC(C)CC(=O)Nc1cc(-c2ccccc2F)nn1-c1ccccc1 -0.432%
C#C[C@]1(O)CC[C@@H]2[C@@H]3CCc4cc(O)ccc4[C@H]3CC[C@@]21C -8.37%
Cc1cccc(Oc2nc3c(c(=O)n(C)c(=O)n3C)n2Cc2ccccc2)c1C 68.8%
COc1ccc(-n2cc(-c3ccccc3)c3c(NC4CCCC4)ncnc32)cc1 -5.87%
CCOc1ccc(CCNc2nc3ccccc3n3c(C)nnc23)cc1OCC -14.7%
COc1ccc2sc(N(Cc3cccnc3)C(=O)COc3ccccc3)nc2c1 16.4%
COc1ccccc1-c1noc(CCCC(=O)NCc2ccco2)n1 -8.46%
Cc1cc(C)cc(NC(=O)Nc2nnc(N(C)C3CCCCC3)s2)c1 0.205%
COc1ccccc1Cc1nc2ccccc2nc1SCC(=O)Nc1cc(Cl)ccc1OC 4.43%
CCn1cnc2c(=O)oc3ccc(S(=O)(=O)Nc4ccc(OC)cc4)cc3c21 3.03%
CCOCCCn1c(=N)c(C(=O)NC2CCCC2)cc2c(=O)n3cc(C)ccc3nc21 3.18%
COc1ccc(CCNC(=O)c2ccc(Cn3c(=O)c4ccccc4n(Cc4cccc(C)c4)c3=O)cc2)cc1OC 3.22%
Cc1ccc(CNC(=O)c2cnn(-c3cccc(C)c3)c2C2CCN(C(=O)OC(C)(C)C)CC2)cc1 14.8%
Cc1ccc(NC(=O)c2cc3nc(-c4ccccc4)cc(-c4ccccc4)n3n2)cc1 29.7%
CCCCc1nn2c(=O)cc(COC(=O)c3ccc(NC(=O)C(CC)CC)cc3)nc2s1 -10.9%
CC(C)Cn1c(=O)c2sccc2n2c(CCCC(=O)N3CCN(c4ccc(F)cc4)CC3)nnc12 1.04%
Fc1ccc2[nH]c(-c3cccs3)cc2c1 -7.1%
COc1cccc(-n2c(SCC(=O)Nc3nnc(C)s3)nc3c([nH]c4ccccc43)c2=O)c1 0.597%
CCOC(=O)C1=C(CN2CCN(c3ccc(OC)cc3)CC2)NC(=O)NC1c1ccc(Cl)cc1 (stereo unspecified) -18.2%
CCOc1ccc(NC(=O)C2CCCN(S(=O)(=O)c3c(C)noc3/C=C/N(C)C)C2)cc1 (stereo unspecified) -6.99%
Cc1cc(CN2CCN(c3cccc(C)c3C)CC2)cs1 -7.07%
C[C@@H]1CC[C@@]2(OC1)OC1CC3C4CC=C5CC(O)CCC5(C)C4CCC3(C)C1[C@@H]2C (stereo partly specified) 9.32%
COCCNC(=O)CSc1nc(-c2ccccc2)[nH]c1-c1ccc(OC)cc1 7.64%
Cc1cc(C)cc(NC(=O)c2cnc3sc(N4CCCC4)nn3c2=O)c1 -0.736%
CCOC(=O)c1c(S(=O)(=O)N2CCC(C(=O)Nc3ccc(C)cc3C)CC2)c(C)n(C)c1C -9.97%
CCc1ccccc1NC(=O)c1nnn(Cc2ccc(Cl)cc2)c1N -17.3%
NCCc1nc2cccnc2n1-c1ccccc1 -21.3%
Cc1ccc(-c2nc(CSc3nncn4c3cc3occc34)c(C)o2)cc1 28.9%
COc1ccc(C)cc1NC(=O)N1CC(C)Sc2ccccc21 (stereo unspecified) 2.54%
Cc1ccc(Cn2cc(C(=O)c3ccc4c(c3)OCO4)c(=O)c3cc(C)ccc32)cc1 -10.9%
O=C(Nc1cccc(C(F)(F)F)c1)c1cc2nc(-c3ccc4c(c3)OCO4)cc(C(F)(F)F)n2n1 3.56%
Cc1ccc(OCC(=O)NCC2(N(C)C)CCCCC2)cc1C 14.8%
CC1CN(C(=O)CCC(=O)Nc2cc(F)ccc2F)c2ccccc2S1 (stereo unspecified) 2.32%
Cc1ccc(NC(=O)c2c(C)nc3sc(C(=O)Nc4ccc(F)cc4)c(N)c3c2-c2ccc(C)o2)c(C)c1 1.67%
Cc1ccc(CNc2oc(-c3ccc(COc4ccc(C)cc4)o3)nc2C#N)cc1 8.64%
CCCOc1ccc(C(=O)NCC2OCCc3ccccc32)cc1 (stereo unspecified) -14.7%
CCCc1nc2ccccc2n1CC(O)COc1ccc(C(=O)OC)cc1 (stereo unspecified) -6.43%
CCc1ccc(CNC(=O)c2cc3ccccn3n2)cc1 0.329%
CCOC(=O)C1CCCN(C(=O)Cn2ncc3c(C)n(Cc4ccccc4Cl)c(C)c3c2=O)C1 (stereo unspecified) 4.64%
COc1ccc(C(=O)Nc2ccc3oc(-c4ccc(F)cc4Cl)nc3c2)cc1 -2.77%

outcome, inactive:
Cc1ccc(NC(=O)c2ccc(CN3CC(=O)N4CCCCC4C3=O)cc2)cc1 (stereo unspecified)
CCN(c1ccccc1)S(=O)(=O)c1ccc(-c2cc(C)no2)s1
CSc1ccc(Cn2nnc(C(=O)Nc3ccc(C)cc3Cl)c2N)cc1
COc1cc(NC(=O)Cn2c(=O)n(CC3CCCO3)c(=O)c3ccccc32)cc(OC)c1 (stereo unspecified)
COc1ccc(C(=O)Nc2nnc(C(C)C)s2)cc1OC
CCC1CCCCN1S(=O)(=O)c1cc(C(=O)Nc2ccc(C)c(F)c2)ccc1F (stereo unspecified)
Cc1ccc(C)c(NC(=O)Cn2c(=O)n(-c3ccc(CC(=O)NCC4CCCO4)cc3)c(=O)c3ccccc32)c1 (stereo unspecified)
COc1ccc(-n2c(SCC(=O)N3CCc4ccccc43)nc3c([nH]c4ccccc43)c2=O)cc1
